The structures appear in SMILES notation. The whole screen tested about 50,000 compounds, of which about 800 (1.6%) showed an effect of 50% or more. Some of the results follow.

Data on 28 compounds can be found in PubChem BioAssay AID1240 (Sanford-Burnham Center for Chemical Genomics, 2008).

This assay concerns the target Bcl-2-like protein 10 (Homo sapiens) (UniProt Q9HD36). The assay is described as follows: TR3 peptide-Bcl-B binding displacers, biochemical primary FP assay, phenotype converters (AID 1240).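 Note: 0% = Bcl-B with tracer peptide and DMSO and 100% = tracer peptide lacking Bcl-B.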 The conditions noted are these: GST-Bcl-B / FITC-TR3 peptide fluorescence polarization; stronger effect = higher value; compound at 3.75 mg/L.
Sequence of UniProt Q9HD36 (Q9HD36 whole entry, looked up): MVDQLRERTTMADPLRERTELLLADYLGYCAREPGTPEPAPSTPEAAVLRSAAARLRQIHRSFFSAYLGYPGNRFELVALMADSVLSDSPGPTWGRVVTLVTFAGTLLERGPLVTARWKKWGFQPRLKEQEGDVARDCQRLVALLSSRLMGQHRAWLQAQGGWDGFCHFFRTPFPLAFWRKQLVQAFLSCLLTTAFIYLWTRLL
For the compound `CC1=NN(C(=O)Cc2ccccc2)C(O)(c2cccnc2)C1` (stereo not drawn), the displacement turned out to be 12.6%. As to `COc1cccc(-c2cc(C(=O)Nc3nc4ccccc4s3)c3ccccc3n2)c1`, the displacement is -4%.

With `COc1ccc(OC)c(NC(=O)C(=O)NNC(=O)c2cccs2)c1`, the displacement was 1.4%. Under `Cc1cc(=O)[nH]c(SC(C(=O)c2ccccc2)c2ccccc2)n1` (stereo not drawn) stands 14%; under `COc1ccc(C)cc1NC(=O)C(=O)NNC(=O)c1ccc(C(C)(C)C)cc1`, -1.5%; under `CCCc1c(O)nc(SCCN(CC)CC)n(C(=O)c2ccccc2)c1=O`, -4.8%. Under `C=CCNC(=O)C(=O)Nc1cc(C)cc(C)c1` stands 7.1%. Take `CC1(C)CC(=O)C2=C(C1)Nc1ccccc1N1C(=O)c3ccccc3C21` (stereo not drawn): the displacement is -4.3%.

Regarding `Cc1c(C=O)cc2c(c1C)OC1(C=C2)N(C)c2ccccc2C1(C)C` (stereo not drawn), the displacement came to 14.2%. As for `COc1ccc(O)c(-c2c(-c3ccc(Cl)cc3)n[nH]c2C)c1`, the figure is -7.9%; as for `CN(C)c1ccc(/C=C2/SC(N3CCOCC3)=NC2=O)cc1`, 27.3%; as for `COc1cc(/C=N/N=C2/SC(CC(=O)O)C(=O)N2c2ccc(O)cc2)ccc1O` (stereo not drawn), 8.7%. As for `CC(C)(C)c1csc(N/N=C/c2ccc(C#N)cc2)n1`, the figure is 7.1%. Regarding `CC(=O)Nc1ccc(NC(=O)COc2ccc(Cl)cc2Br)cc1`, the displacement is -10.8%. `CC(C)(C)N(Cc1ccccc1)C(=O)CN1C(=O)/C(=C/c2ccccc2)SC1=S`: the displacement was -7.7%. With `CCSc1nnc2n(-c3ccc(OC)cc3)c(=O)c3c4c(sc3n12)COC(C)(C)C4`, the displacement is -0.7%. In the case of `Cc1ccc(S(=O)(=O)NC(C)c2ccc(-c3ccccc3)cc2)cc1[N+](=O)[O-]` (stereo not drawn), the displacement was determined as 14%. `COC(=O)C1=C(C(=O)OC)SC(=C2C(=S)C(C)(C)N(C(=O)c3ccc4ccccc4c3)c3ccc(OC)cc32)S1`: the displacement was -11.7%.

For `O=C1c2ccccc2-c2onc3ccc(Sc4ccccc4)c1c23`, the displacement is 17.9%. In the case of `N#CC(=C1CCCCC1)c1nc(-c2ccc([N+](=O)[O-])cc2)cs1`, the displacement is -6.6%.

In the case of `O=C(CSc1cccc2cccnc12)Nc1nc(-c2ccccc2)cs1`, the displacement was -1.6%.

On to `C=CCOc1ccccc1/C=C1\N=C(c2ccc(C)cc2)OC1=O`, for which the displacement was -2.1%.

Turning to `CCOC(=O)C1CCN(CN2C(=O)C(=O)c3ccccc32)CC1`, the displacement was -2.3%.

Turning to `COc1cc(/C=C2\C=C(c3ccc(Cl)cc3)OC2=O)cc(Br)c1OC`, the displacement is -9.5%. As for `O=C1/C(=C\c2ccc(I)cc2)SC(=S)N1c1cccc(Cl)c1`, the displacement was -1%. As for `C=CCN1C(=O)/C(=C\c2cc(Cl)c(OCc3ccccc3Cl)c(OC)c2)SC1=S`, the figure is 6.1%. Under `CN1CCN(c2ccc([N+](=O)[O-])c(NC(c3ccccc3)c3ccccc3)c2)CC1` stands 7.1%. Under `COC(=O)c1ccc(/C=C2/C(=O)NC(=O)N(c3cccc(C)c3)C2=O)cc1` stands -8.6%.
